Test results: PubChem BioAssay (NCI)
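Method: 48-hour compound exposure of cells in 96-well plates, five concentrations, linear interpolation of endpoints. GI50 is the concentration that inhibits growth by half.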 Not every entry of the source has a single result; some have several. The list is limited to them. There may be further records. For some of these results: A record mostly stands for its own series of concentrations, which the source does not state; a value can be the end of its range. Brackets tell where a record comes from. A, B and so on number the origins entry by entry.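 TGI: total growth inhibition.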 For some of these results: The records of an entry are repeats (runs, samples, wells, individuals or studies).

Experiments:
Assay in all cases: growth of human tumour cells (NCI), 48 h
HOP-62 NSCLC = system: HOP-62 NSCLC
SN12C renal = system: SN12C renal
CAKI-1 renal = system: CAKI-1 renal
U251 CNS = system: U251 CNS
CCRF-CEM leukemia = system: CCRF-CEM leukemia
HS 578T breast = system: HS 578T breast
SF-268 CNS = system: SF-268 CNS
MCF7 breast = system: MCF7 breast
HL-60(TB) leukemia = system: HL-60(TB) leukemia
SK-OV-3 ovarian = system: SK-OV-3 ovarian
HCC-2998 colon = system: HCC-2998 colon
OVCAR-8 ovarian = system: OVCAR-8 ovarian
HCT-15 colon = system: HCT-15 colon
ACHN renal = system: ACHN renal
HT29 colon = system: HT29 colon
MOLT-4 leukemia = system: MOLT-4 leukemia
DU-145 prostate = system: DU-145 prostate
NCI/ADR-RES ovarian = system: NCI/ADR-RES ovarian
SNB-19 CNS = system: SNB-19 CNS
RPMI-8226 leukemia = system: RPMI-8226 leukemia
SR leukemia = system: SR leukemia
SF-295 CNS = system: SF-295 CNS
SK-MEL-28 melanoma = system: SK-MEL-28 melanoma
SW-620 colon = system: SW-620 colon

SMILES: CC(C)C[C@H](NC(=O)[C@H](Cc1ccccc1)NC(=O)c1cnccn1)B(O)O
- TGI (HOP-62 NSCLC): 14.9 nM, 41 nM [sample A] and 312 nM [sample B]
- TGI (SN12C renal): 9.79 nM, < 10.7 nM [sample A] and 184 nM [sample B]
- TGI (CAKI-1 renal): 19 nM [sample A] and 910 nM [sample B]
- TGI (U251 CNS): 111 nM, 74.7 nM [sample A] and 1.28 µM [sample B]
- TGI (CCRF-CEM leukemia): 44.5 nM [sample A, mean of 4 tests] and > 100 µM [sample B, mean of 3 tests]
- TGI (HS 578T breast): 87.3 nM [sample A, mean of 4 tests] and 9.78 µM [sample B, mean of 3 tests]
- TGI (SF-268 CNS): 10.8 nM [sample A] and 410 nM [sample B]
- TGI (MCF7 breast): 759 nM, > 100 µM [sample A] and > 73.8 µM [sample B]
- TGI (HL-60(TB) leukemia): 23.4 nM, > 100 µM [sample A] and 856 nM [sample B]
- TGI (SK-OV-3 ovarian): 168 nM, > 100 µM [sample A] and 553 nM [sample B]
- TGI (HCC-2998 colon): 1.31 nM [sample A] and 16.6 nM [sample B]
- TGI (OVCAR-8 ovarian): 114 nM [sample A, mean of 4 tests] and > 11.5 µM [sample B, mean of 3 tests]
- TGI (HCT-15 colon): 25.2 nM [sample A] and 3.09 µM [sample B]
- TGI (ACHN renal): 663 nM, > 100 µM [sample A] and 632 nM [sample B]
- TGI (HT29 colon): 6.61 nM [sample A] and 246 nM [sample B]
- TGI (MOLT-4 leukemia): 165 nM [sample A] and > 100 µM [sample B]
- TGI (DU-145 prostate): 199 nM, 4.28 µM [sample A] and 17.3 µM [sample B]
- TGI (NCI/ADR-RES ovarian): 195 nM, > 100 µM [sample A] and > 100 µM [sample B]
- GI50 (SNB-19 CNS): 190 nM [sample A, 1 test] and 3.49 nM [sample A, mean of 4 tests] and < 10.9 nM [sample B, mean of 3 tests]
- TGI (SNB-19 CNS): > 100 µM [sample A, 1 test] and 896 nM [sample A, mean of 4 tests] and > 100 µM [sample B, mean of 3 tests]
- TGI (RPMI-8226 leukemia): 22.7 nM [sample A] and 664 nM [sample B]
- TGI (SR leukemia): 86.7 nM [sample A] and > 100 µM [sample B]
- TGI (SF-295 CNS): 13 nM, 154 nM [sample A] and 24.3 nM [sample B]
- TGI (SK-MEL-28 melanoma): 3.16 nM [sample A] and 18.9 µM [sample B]
- TGI (SW-620 colon): 15.6 nM [sample A] and 277 nM [sample B]
